Experimental data as given in PubChem BioAssay AID2676 (National Center for Advancing Translational Sciences (NCATS), 2010).
Out of some 370,000 compounds screened, about 1,100 (0.3%) were called active. Inconclusive means that the source gave no clear call. Such entries were picked first, then a sample of the others. Calls come from the whole dose curve; as a rule, active = well fitted activation curve with a large enough effect; inconclusive = small, poorly fitted or top-dose-only effect; inactive = flat fitted curve, though single readings scatter. Where the call is inconclusive, the potency comes from a doubtful curve fit.

The molecules below were run against Relaxin receptor 1 (Homo sapiens) (UniProt Q9HBX9) (assay: qHTS Assay for Agonists of the Relaxin Receptor RXFP1). Settings: HEK293T-RXFP1 cAMP TR-FRET, 30 min; series mostly up to 57.5 µM.
Sequence of UniProt Q9HBX9 (Q9HBX9 whole entry, looked up): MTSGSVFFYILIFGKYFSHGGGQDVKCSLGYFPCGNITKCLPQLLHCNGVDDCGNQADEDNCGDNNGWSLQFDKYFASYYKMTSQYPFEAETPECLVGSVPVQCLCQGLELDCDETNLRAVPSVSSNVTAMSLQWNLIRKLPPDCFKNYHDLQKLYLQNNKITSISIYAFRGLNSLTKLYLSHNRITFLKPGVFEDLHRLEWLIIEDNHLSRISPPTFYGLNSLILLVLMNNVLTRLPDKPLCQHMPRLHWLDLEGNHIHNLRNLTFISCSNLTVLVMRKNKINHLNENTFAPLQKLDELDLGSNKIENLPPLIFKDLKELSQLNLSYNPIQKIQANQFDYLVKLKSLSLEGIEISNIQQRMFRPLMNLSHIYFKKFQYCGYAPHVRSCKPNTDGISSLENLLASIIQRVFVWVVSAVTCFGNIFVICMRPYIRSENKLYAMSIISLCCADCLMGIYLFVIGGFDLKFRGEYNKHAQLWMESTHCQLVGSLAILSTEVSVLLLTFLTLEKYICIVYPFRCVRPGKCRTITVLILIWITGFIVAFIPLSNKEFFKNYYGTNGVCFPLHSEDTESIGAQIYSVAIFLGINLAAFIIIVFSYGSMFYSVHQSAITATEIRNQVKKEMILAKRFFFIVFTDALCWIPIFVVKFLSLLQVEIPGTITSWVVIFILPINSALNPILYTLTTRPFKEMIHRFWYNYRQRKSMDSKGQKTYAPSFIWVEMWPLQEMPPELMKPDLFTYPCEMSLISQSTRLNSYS
Outline: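 HEK293T cells stably expressing RXFP1 were pretreated with the PDE4 inhibitor Ro 20174, exposed to compounds for 30 min at 37C, lysed, and cAMP was read by TR-FRET. Data normalized to buffer (basal) and 29 nM porcine relaxin (100%).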
Note: nearly all actives have a fitted effect of over 60% in size.
Potency is the fitted concentration of half-maximal effect; tags give direction and shape of the fitted curve.

With `CC(C)CCNC(=O)c1cc(-c2ccc(Br)s2)nc2ccccc12` as the molecule, how does the Potency read?
Its Potency is inconclusive: 2.51 µM [activator, full curve].

For `Cc1cccc(NC(=O)c2ccc3[nH]c(C)cc(=O)c3c2)c1`, which Potency is on record?
Its Potency is inconclusive: 39.8 µM [activator, single point].

How did the Potency turn out when `O=C(CSc1ncc2c(n1)-c1cc(Cl)ccc1N(Cc1ccccc1)S2(=O)=O)NCCc1ccccc1` was run?
Its Potency is inconclusive: 7.08 µM [activator, single point].

`COCc1nc2oc3ccc(F)cc3c(=O)c2cc1C(=O)OC` was tested. Which Potency did it give?
The Potency was inconclusive: 39.8 µM [activator, single point].

Which Potency does the source give for `Cc1cc(C)n2nc(C(=O)N3CCCC(CNS(=O)(=O)c4cccs4)C3)cc2n1` (stereo unspecified) here?
Its Potency is inconclusive: 28.2 µM [activator, partial curve].

How did the Potency turn out when `CCN(CCN(C)C)C(=O)c1ccc2c(c1NCCO)C(=O)c1ccccc1C2=O` was run?
The Potency was “inactive”.

How did the Potency turn out when `COc1ccc(S(=O)(=O)NCCc2csc(-c3cccc(F)c3)n2)cc1OC` was run?
Its Potency is “inactive”.

With `Cc1cccn2c(=O)c(/C=C(\C#N)C(=O)NC3CCS(=O)(=O)C3)c(N3CC(C)OC(C)C3)nc12` (stereo unspecified) as the molecule, how does the Potency read?
The Potency was inconclusive: 20 µM [activator, partial curve].

With `COc1cccc(C2C(C(=O)c3cc4cccc(OC)c4o3)=C(O)C(=O)N2c2cc(C)on2)c1OC` (stereo unspecified) as the molecule, how does the Potency read?
The Potency was inconclusive: 25.1 µM [activator, partial curve].

`Cc1cccn2c(=O)c3cc(C(=O)NCC4CCCO4)c(=N)n(Cc4cccnc4)c3nc12` (stereo unspecified) was tested. Which Potency did it give?
Its Potency is inconclusive: 31.6 µM [activator, partial curve].

`N=C1S/C(=C\c2ccco2)C(=O)N1c1ccc2c(c1)OCO2` was tested. Which Potency did it give?
The Potency was “inactive”.

With `Cc1cc(C)cc(NC(=S)NCC2CCCO2)c1` (stereo unspecified) as the molecule, how does the Potency read?
The Potency was “inactive”.

`COc1ccc(Cl)cc1NC(=O)Cn1ccn(-c2cc(C)cc(C)c2)c(=O)c1=O` was tested. Which Potency did it give?
Its Potency is inconclusive: 39.8 µM [activator, single point].

With `Cc1nc2ccccn2c1C(=O)OCC#N` as the molecule, how does the Potency read?
Its Potency is inconclusive: 28.2 µM [activator, partial curve].

Which Potency does the source give for `O=C(Nc1nnc(-c2ccccc2F)s1)c1ccccc1F` here?
Its Potency is inconclusive: 35.5 µM [activator, single point].

Which Potency does the source give for `COc1ccccc1NC(=O)Cn1c(=O)c(CNc2ccccc2)cc2cc(OC)c(OC)cc21` here?
The Potency was inconclusive: 28.2 µM [activator, partial curve].

How did the Potency turn out when `Cc1ccc(S(=O)(=O)c2nnn3c2nc(NCc2cccs2)c2sccc23)cc1` was run?
Its Potency is inconclusive: 31.6 µM [activator, single point].

With `COC(=O)c1sccc1NC(=O)c1cc(-c2ccc(C)cc2C)nc2ccccc12` as the molecule, how does the Potency read?
Its Potency is “inactive”.

With `CC(c1ccco1)N(C(=O)CSc1ccc(Br)cc1)c1ccccn1` (stereo unspecified) as the molecule, how does the Potency read?
Its Potency is “inactive”.

For `CSc1cc(-c2ccc(Cl)cc2)c(C(=O)NC(C)C)s1`, which Potency is on record?
The Potency was inconclusive: 39.8 µM [activator, single point].

`COc1ccc(C2C(C(=O)c3ccc(C)o3)=C(O)C(=O)N2c2cc(C)on2)cc1OC` (stereo unspecified) was tested. Which Potency did it give?
The Potency was inconclusive: 28.2 µM [activator, partial curve].

How did the Potency turn out when `N#Cc1c(N)nc2c3c(sc(=N)c2c1N)NC(=O)CC3c1c(F)cccc1Cl` (stereo unspecified) was run?
The Potency was inconclusive: 35.5 µM [activator, single point].

How did the Potency turn out when `COc1ccccc1CNc1nc2c(S(=O)(=O)c3ccc(C)c(C)c3)nnn2c2ccc(Cl)cc12` was run?
The Potency was inconclusive: 35.5 µM [activator, single point].

How did the Potency turn out when `O=C(c1ccc(F)cc1)c1cn(Cc2ccccc2)c2cc3c(cc2c1=O)OCO3` was run?
The Potency was inconclusive: 25.1 µM [activator, single point].

`CCOC(=O)c1c(NC(=O)c2cc(-c3ccc(Br)cc3)on2)sc(C(C)=O)c1C` was tested. Which Potency did it give?
Its Potency is inconclusive: 7.94 µM [activator, single point].

With `CCC(C(=O)NCc1cc(OC)ccc1OC)n1nc(C)c2sc3ccccc3c2c1=O` (stereo unspecified) as the molecule, how does the Potency read?
Its Potency is inconclusive: 39.8 µM [activator, single point].

How did the Potency turn out when `Cc1cccc(CNC(=O)c2ccc(N3Cc4ccccc4Oc4ncccc43)s2)c1` was run?
Its Potency is inconclusive: 17.8 µM [activator, partial curve].

How did the Potency turn out when `N#CCc1c(C#N)c(N)nc(Nc2ccccc2)c1C#N` was run?
Its Potency is inconclusive: 39.8 µM [activator, single point].

`O=C(NCc1cccnc1)c1cc(-c2ccco2)on1` was tested. Which Potency did it give?
Its Potency is “inactive”.

For `COC(=O)CCC(=O)NC(=S)Nc1sc(C)c(C)c1C(N)=O`, which Potency is on record?
Its Potency is inconclusive: 39.8 µM [activator, single point].

With `CSc1ncc(Cl)c(C(=O)Nc2ccc(S(=O)(=O)Nc3nccc(C)n3)cc2)n1` as the molecule, how does the Potency read?
The Potency was inconclusive: 14.1 µM [activator, partial curve].

For `O=C(CSc1cn(CC(=O)N2CCCCC2)c2ccccc12)NCc1ccccc1`, which Potency is on record?
Its Potency is “inactive”.

Which Potency does the source give for `COc1cccc(NC(=O)Cn2c3ccc(OC)cc3c3nc4n(c(=O)c32)CCS4)c1` here?
The Potency was active: 10 µM.

For `Cc1ccccc1Nc1nn2c(=O)c3ccc(C(=O)NCc4ccccc4)cc3nc2s1`, which Potency is on record?
Its Potency is inconclusive: 39.8 µM [activator, single point].

Which Potency does the source give for `O=C(Nc1nccs1)c1cc2sccc2n1Cc1ccc(Cl)cc1` here?
The Potency was inconclusive: 28.2 µM [activator, partial curve].

For `C=CCC(CC=C)(CNC(=O)C(=O)Nc1ccc(C)cc1)c1ccccc1`, which Potency is on record?
The Potency was “inactive”.

With `CCc1nc2ccccc2nc1N1CCN(S(=O)(=O)c2ccc(Cl)cc2)CC1` as the molecule, how does the Potency read?
Its Potency is inconclusive: 12.6 µM [activator, partial curve].

With `CN(C)Cc1c(O)ccc2cc(-c3nc4ccccc4n3C)c(=O)oc12` as the molecule, how does the Potency read?
Its Potency is inconclusive: 31.6 µM [activator, partial curve].

With `Cc1ccc(-c2nnc(NC(=O)Cc3ccc(F)cc3)o2)c(C)c1` as the molecule, how does the Potency read?
Its Potency is inconclusive: 35.5 µM [activator, single point].

Which Potency does the source give for `Cc1ccc(C(=O)c2sc(Nc3ccccc3)c(S(=O)(=O)c3ccccc3)c2N)c(C)c1` here?
The Potency was “inactive”.

How did the Potency turn out when `Cc1nc2scc(C)n2c(=O)c1S(=O)(=O)N1CCN(c2ccccn2)CC1` was run?
Its Potency is active: 25.1 µM.

Which Potency does the source give for `COc1ccc(CC(=O)Nc2ccc(-c3nc4ccccc4s3)c(C)c2)cc1` here?
The Potency was inconclusive: 39.8 µM [activator, single point].

With `Cc1cc(C)n2c(SCC(=O)NC3CCCCC3)nnc2n1` as the molecule, how does the Potency read?
The Potency was inconclusive: 6.31 µM [activator, partial curve].

How did the Potency turn out when `COc1cc(NC(=O)c2cc3cc4cc(OC)ccc4nc3o2)cc(OC)c1` was run?
The Potency was inconclusive: 22.4 µM [activator, single point].

For `O=C(NC(=S)Nc1ccc(O)cc1)c1ccccc1Cl`, which Potency is on record?
The Potency was “inactive”.

How did the Potency turn out when `O=C(Nc1ccc(F)cc1F)c1cc(-c2ccc3c(c2)OCO3)on1` was run?
The Potency was inconclusive: 10 µM [activator, partial curve].

For `COC(=O)c1sc2ccccc2c1S(=O)(=O)N1CCN(c2ccc(C(C)=O)cc2)CC1`, which Potency is on record?
Its Potency is inconclusive: 28.2 µM [activator, partial curve].

Which Potency does the source give for `Cc1c(N)cc(N)cc1C(=O)O` here?
The Potency was “inactive”.

For `CCOc1ccc(NC(=O)CCc2c(C)nc3c(c(C)nn3-c3ccccc3)c2C)cc1`, which Potency is on record?
Its Potency is “inactive”.

Which Potency does the source give for `COc1ccc(NC(=O)C2CCCN(S(=O)(=O)c3ccc4[nH]c(=O)ccc4c3)C2)cc1OC` (stereo unspecified) here?
The Potency was inconclusive: 39.8 µM [activator, single point].

Which Potency does the source give for `CCN(CC)S(=O)(=O)c1ccc2c(c1)N(CC(=O)N1CCC(C(N)=O)CC1)C(=O)CO2` here?
Its Potency is inconclusive: 17.8 µM [activator, partial curve].

For `O=c1[nH]c2cc3c(cc2cc1C(c1nnnn1Cc1ccccc1)N1CCCCCC1)OCCO3` (stereo unspecified), which Potency is on record?
Its Potency is inconclusive: 39.8 µM [activator, single point].

How did the Potency turn out when `NS(=O)(=O)c1ccc(NC(=O)CSc2ncnc3ccccc23)cc1` was run?
Its Potency is inconclusive: 31.6 µM [activator, single point].

`CCOC(=O)N1CCc2c(sc3[nH]c(=S)[nH]c(=S)c23)C1` was tested. Which Potency did it give?
The Potency was inconclusive: 22.4 µM [activator, partial curve].

With `N=c1c2cn[nH]c2nc(SCC(=O)c2ccc(Br)cc2)n1-c1ccc(Br)cc1` as the molecule, how does the Potency read?
The Potency was inconclusive: 31.6 µM [activator, single point].

Which Potency does the source give for `C/C(N)=C(/C#N)C(=O)COC(=O)c1cc(-c2ccccc2)nc2ccc(Br)cc12` here?
Its Potency is inconclusive: 25.1 µM [activator, partial curve].

For `CCc1ccc(NC(=O)CSc2nc3c(sc4ccccc43)c(=O)n2CCN(CC)CC)cc1`, which Potency is on record?
Its Potency is inconclusive: 39.8 µM [activator, single point].

Which Potency does the source give for `OC(COc1ccc2ccccc2c1Br)Cn1cnc(-c2ccccc2)c1` (stereo unspecified) here?
Its Potency is inconclusive: 25.1 µM [activator, partial curve].

How did the Potency turn out when `COc1ccc(Cl)cc1S(=O)(=O)n1ccnc1` was run?
Its Potency is “inactive”.

For `NC(=O)Cn1c(=O)n(CCCCCC(=O)NCc2ccccc2Cl)c(=O)c2sccc21`, which Potency is on record?
Its Potency is inconclusive: 31.6 µM [activator, single point].

Which Potency does the source give for `O=S(=O)(c1ccccc1)c1nnn2c1nc(NC1CCCCCC1)c1sccc12` here?
Its Potency is inconclusive: 22.4 µM [activator, partial curve].

How did the Potency turn out when `O=C(O)c1cccnc1Sc1ncnc2sc3c(c12)CCC3` was run?
Its Potency is inconclusive: 39.8 µM [activator, single point].

For `Cc1ccc2nc(NCCc3ccc(Cl)cc3)c3nncn3c2c1`, which Potency is on record?
The Potency was inconclusive: 39.8 µM [activator, single point].

How did the Potency turn out when `COc1ccc(S(=O)(=O)N2CCC(C(=O)NCCC(=O)NCc3ccccc3OC)CC2)cc1` was run?
The Potency was “inactive”.

With `CCOC(=O)C1CCN(C(=O)c2cc3c(C)cc(C)cc3[nH]2)CC1` as the molecule, how does the Potency read?
Its Potency is “inactive”.

How did the Potency turn out when `O=C(Nc1ccc2nc(SCC(=O)N3CCc4ccccc43)sc2c1)c1ccc(Cl)cc1` was run?
The Potency was inconclusive: 28.2 µM [activator, single point].
